Assay results reported in the RNAGym collection of RNA variant scans (doi:10.7554/elife.90254).
The source gives no read counts; variants with many changes may rest on few reads.

B1: OR4K15 (parent)
chain: GUUAACGGUCAUAGGCCAUGGAAACUAGGAGCACCAUUUCGCUGCCAGUGAAGAAAUGAACAAAGAAAAUCUGGGCCAGGCAGGCAUCAAAAGAAAUAGUCUUGCGCUCAACCAGAAAGUCUGUAAUCAUUUUAAGGGUA

Variants of: B1
Assay: self-cleavage, relative activity (ratio to wild type); higher = more cleavage; in vitro, sequencing; the parent is a self-cleaving ribozyme

Row | Variant | self-cleavage
1 | G44A A94C U122A | 0.96
2 | G41A U49G A62G U72C A96G | 0.11
3 | U43C A55G A56G A125G | 0.75
4 | U43C A69C A98G | 0.33
5 | U43C A116G A117G | 0.7
6 | C40A A63G U100C U102A A126G | 0.9
7 | C42U A94G C121U | 1.71
8 | U43C A47G A91G A111G | 0.02
9 | U43G C46U A116G | 0.25
10 | U43C A55G U100C A111G | 0.03
11 | U43A A54G A67G | 0.87
12 | U39C U72C U87C A140G | 0.18
13 | U43A A55U A82G A86U A94G A96U U102C U120C U132C | 0.65
14 | C45U A51G U127G | 0.43
15 | U43A A64G A67G U102C U139A | 2.36
16 | U43C A47G A67G | 1.34
17 | U43A A78U U102C G136A A140G | 1.41
18 | G44A A94G C109A | 0.19
19 | U39C C40U A69C U70C U122C | 0.58
20 | U43A A59G A69G C81U A129G U130G U139C | 0.02
21 | A47G A56G A95G | 2.02
22 | C45A A52U A56G U130A | 0.75
23 | U43C A54G A55G U122C | 1.57
24 | C40U U43C A51G A54U U100A U127C | 0.4

Row | Variant | self-cleavage
25 | C40U A62C A68G G73A U122C | 0.13
26 | U39C U43A A66G A78G A91U | 0.25
27 | U43C U100C U103C A110G | 0.12
28 | U43A A69G A89G | 1.73
29 | C45U A96C U103G A129U | 0
30 | A47G A62G U127A | 1.68
31 | C40U A64G A67G A91G U108C | 0.03
32 | A47G A60G A67U A82G A129G | 0.15
33 | U43C A68G A82G A89G U108C | 0
34 | A47G A55C A69U C77U A78G A82G U108C A116G U132A | 0.01
35 | U43C A51U A60G A82G A110G | 0.05
36 | U43C A54G U127C | 0.72
37 | C46U A64G A116G U122C | 0.78
38 | U43C A110G A125U | 0.14
39 | G41A A62U A90G U120C A126G | 0.23
40 | U43C U72A U108A A117U | 0
41 | U43G A56G A68U | 1.7
42 | U43A A51G U130C | 1.31
43 | C46U A51U A62G A117U | 1.56
44 | U43C A60G U70C | 0.49
45 | U43A A51G A129G | 1.02
46 | G44A U72A A91G | 0.21
47 | G44A A62G A78G | 0.25
48 | U39C G106A A129G | 0.01

Row | Variant | self-cleavage
49 | G44A U70C A78G | 0.33
50 | U43C A64G U97G | 2.03
51 | A47G A60G A62C A63G A67G U87A U122C | 0.6
52 | U43C A59G A60G U102C | 1.76
53 | C42U U102A A117G | 1.4
54 | U43A U57A A67C | 1.37
55 | U43C U72C A98G | 0.1
56 | U43C A96U U97C | 1.42
57 | U43A A78G A98G C105U U108C | 0.01
58 | G41U A67G U108C U133C | 0.01
59 | G41A U43C A86G A94G A96G U102C | 1.08
60 | C45U G115A A140G | 0.3
61 | U43A A110G U139C | 0.2
62 | U43C U87G U132C | 0.46
63 | U43C A69G A78G U127G | 0.25
64 | C42U A63G U70C G73A | 0.24
65 | C40U U57C A118G A125G U132C | 0.09
66 | U43C A47G A56G | 1.35
67 | U39C G48A A82C A91G U100C | 0.23
68 | C45U U72A A95G | 0.16
69 | U43A U57C A82U U108C | 0.05
70 | U43C A90U A111G | 0.02
71 | U43A A69G A90G | 0.89
72 | C45U U49C U72C A82U A90G | 0.14

Row | Variant | self-cleavage
73 | G41A U100C A110G | 0.15
74 | U43C A68G A82G | 0.37
75 | U39C U49G A68G | 1.48
76 | U39C U120G U130C | 1.63
77 | U43C A64G A91G | 1.02
78 | G44A U70C U87C U139G | 0.9
79 | U43A A56G U102A U124C U139C | 0.23
80 | G41A C88U U108C | 0
81 | U39C U72A U120A | 0.11
82 | C46U A51G A60G A95U A117U U122C | 0.86
83 | U43A G80A A129G | 0.17
84 | U43C U49A A64G | 0.63
85 | U39C U108A A140G | 0.01
86 | U43C A67G A86G A90G | 0.95
87 | A47G A55G U87C A114G | 0.14
88 | U39C A116G U131C | 1.13
89 | G41A A59G U100C A117G | 2.23
90 | A47C A92G A114G | 0.68
91 | U43C A95G U97C | 0.23
92 | G44A U49A A118U | 0.64
93 | C40G U87C A91G A126G | 0.42
94 | C40U A69G A92G | 1.04
95 | C40U A78G A110U | 0.51
96 | A47G A54G A96G | 0.84

Row | Variant | self-cleavage
97 | U43C U87C A134G | 1.31
98 | C40U A52G A67G | 0.49
99 | U39C U127C U132C | 0.93
100 | U43C A51G A55G A126G | 1.37
101 | U43C A69U U72G G83U G115A | 0.07
102 | U39C U43A A66G A89G | 1.2
103 | G41A A62G A110G U120C | 0.04
104 | U43C A54G A114U | 0.08
105 | U39C U103C A118G | 0.85
106 | U43C C45A C77A A91G A110G | 0.15
107 | U43C A66U A114G | 0.48
108 | U43A A52U U100C A111G C113U | 0.02
109 | A47G A62G A92G U97A | 1.09
110 | U43A A60U U72A U131C | 0.65
111 | C42A U49C A89G | 0.28
112 | G44A A51G A66G | 0.89
113 | U43A A55U A69G U70C | 0.41
114 | G44A A82G U87C U122A | 0.25
115 | C45U A47G A96G | 1.57
116 | U39C U49C A90G A114U | 0.03
117 | U43C C45U G50A A69G U87A A129U | 0.56
118 | U39C A111G U127C | 0.01
119 | U43A A66C C71A | 0.2
120 | U43A A91G A114G | 0.4

Row | Variant | self-cleavage
121 | U43C A110G A135U | 0.17
122 | A47G A55G U87A | 1.19
123 | U43C G84A A125G | 1.26
124 | A47C U70C A86G | 1.03
125 | A47G A59G A126G | 0.66
126 | U39C C76U U100A A117G | 0.05
127 | U43C A92G U102A C109U | 0.03
128 | G44U U122C U132C | 0.82
129 | G41A A51G U70C | 0.94
130 | G44A U87A A96G | 2.45
131 | A47C A62U A92G | 1.66
132 | U43C A54U G84A U87A U131C | 1.08
133 | U43C A92G U120C | 0.68
134 | A47G A56G A86G A111G U131C | 0
135 | U39C U57A A92U | 1
136 | C40U A54G A64G A95G | 2.91
137 | U43C C61U G106A | 0
138 | G41A A51G A54U A55U U103C | 0.18
139 | U43C A59C A116G A125G A140G | 0.14
140 | U43C U103C G106A | 0.01
141 | C46A U49C A89G U131C | 1
142 | G44A A78U U87A U120C | 0.06
143 | A47G A56G C107U | 0
144 | G44C A60G A66G A78U U131C | 0.08

Row | Variant | self-cleavage
145 | U39C G73A U108C | 0.03
146 | C40A U43A U49C A55G A86U | 1.47
147 | U39C A114G A134G | 0.38
148 | U43A G44A A55G A56U U103C | 0.68
149 | A47G A60U A82G U100A | 0.14
150 | U43A A52G U130C | 0.87
151 | U43C A67G A110G | 0.18
152 | A47G A60U C105U | 0.22
153 | U43C A86G A135G | 1.11
154 | C46U A62U A86G | 1.23
155 | U43C A96G A140U | 0.92
156 | U39C U49C A56C A59G A66G A91G | 0.81
157 | C42U A82U A110C | 0.03
158 | U39C C88A A94G A126G | 0.32
159 | A47G A64U A96U A116U | 0.02
160 | A47G A51G C88U | 1.49
161 | U43A A55G A95G U108A A118G U130C U132C | 0.01
162 | G41A U100C U102A | 1.95
163 | G41A A91G U102G U133C | 1.19
164 | U43A C105A A111G A114G | 0.02
165 | U43C A52G A64G | 1.41
166 | C40U A51G U87C | 1.25
167 | C40U A52G U100C A114U | 0.1
